Test results reported in PMC4336329 (PLoS ONE, 2015).
Screen size: about 310,000 compounds; about 14,000 (4.5%) showed an effect of 50% or more. The effect is printed as a negative number. This is one part of the list.

target: human ether-à-go-go-related gene (hERG) potassium channel (human, UniProt Q12809); assay: primary screen, population patch clamp on CHO cells stably expressing hERG
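Note: peak tail current of the secondary pulse compared with the same well before compound.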

Sequence of human ether-à-go-go-related gene (hERG) potassium channel (Q12809 whole entry, looked up): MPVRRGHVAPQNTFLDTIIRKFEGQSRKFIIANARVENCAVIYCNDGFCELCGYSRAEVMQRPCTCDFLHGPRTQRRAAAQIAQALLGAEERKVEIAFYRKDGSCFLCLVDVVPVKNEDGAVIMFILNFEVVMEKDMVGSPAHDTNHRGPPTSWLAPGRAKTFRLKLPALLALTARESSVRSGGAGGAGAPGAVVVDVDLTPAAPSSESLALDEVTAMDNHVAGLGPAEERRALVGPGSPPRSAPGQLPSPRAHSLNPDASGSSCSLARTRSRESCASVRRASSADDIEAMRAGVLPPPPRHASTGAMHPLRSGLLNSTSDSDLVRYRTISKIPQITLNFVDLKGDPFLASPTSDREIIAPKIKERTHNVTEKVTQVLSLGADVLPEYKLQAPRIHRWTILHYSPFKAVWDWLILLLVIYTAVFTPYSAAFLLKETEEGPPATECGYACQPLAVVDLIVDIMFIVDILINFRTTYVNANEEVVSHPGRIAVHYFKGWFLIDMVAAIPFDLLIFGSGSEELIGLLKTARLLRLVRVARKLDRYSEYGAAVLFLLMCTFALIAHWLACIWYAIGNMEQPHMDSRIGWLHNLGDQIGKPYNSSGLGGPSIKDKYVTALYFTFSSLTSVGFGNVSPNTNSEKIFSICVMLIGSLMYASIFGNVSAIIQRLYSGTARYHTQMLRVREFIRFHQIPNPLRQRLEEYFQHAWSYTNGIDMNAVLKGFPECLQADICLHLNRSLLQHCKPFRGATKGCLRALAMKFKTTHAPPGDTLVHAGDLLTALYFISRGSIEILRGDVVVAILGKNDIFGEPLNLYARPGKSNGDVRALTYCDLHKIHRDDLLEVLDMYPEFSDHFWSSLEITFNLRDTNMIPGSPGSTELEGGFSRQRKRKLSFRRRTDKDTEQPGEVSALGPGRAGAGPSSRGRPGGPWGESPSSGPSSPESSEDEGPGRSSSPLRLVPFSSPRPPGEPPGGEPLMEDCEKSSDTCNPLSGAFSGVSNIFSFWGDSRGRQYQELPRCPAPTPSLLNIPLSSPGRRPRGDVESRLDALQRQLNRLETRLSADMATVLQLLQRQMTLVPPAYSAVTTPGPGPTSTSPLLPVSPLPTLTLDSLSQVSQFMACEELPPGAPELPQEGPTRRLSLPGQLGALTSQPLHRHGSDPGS

Compound	hERG current change (%, negative = inhibition) at 10uM [%]
Cc1[nH]c(=O)[nH]c(=O)c1/C=C/C(=O)OCC(C)C	-4.37
O=[N+]([O-])c1cn(-c2nc(-c3ccco3)cc(C(F)(F)F)n2)cn1	2.87
Cc1cc(C)n(Cc2nc3ccccc3n2C)n1	10.3
O=C(NCC1OCCc2ccccc21)c1ccc(NC(=O)c2ccccc2Cl)cc1 (stereo not drawn)	17.5
CC(C)(C)c1cc(NC(=O)c2cccc(S(=O)(=O)N3CCOCC3)c2)no1	-6.32
Cc1nn(Cc2cccc(C(=O)NC3CCCCC3)c2)c(C)c1Cl	-16.1
COc1ccc(OC)c(C2C(C#N)=C(N)N(N(C)C)C3=C2C(=O)CC(C)(C)C3)c1 (stereo not drawn)	1.73
COc1ccc(-n2nc([N+](=O)[O-])c(=NC3CCN(Cc4ccccc4)CC3)n2O)cc1	-39.8
O=C(OCC(=O)N1CCCc2ccccc21)c1ccc(Br)o1	0.832
CC(=O)c1ccc(OCc2ccc(Oc3c(Cl)cccc3[N+](=O)[O-])cc2)cc1	18.4
Cn1c(=O)c2c(nc(SCC(=O)Nc3ccccc3N3CCCCC3)n2C)n(C)c1=O	-54
Cc1cc(C(=O)N2CCCC(N3CCN(Cc4ccc5c(c4)OCO5)CC3)C2)n[nH]1 (stereo not drawn)	-15.4
Cc1cccc(NC(=O)CN2CCc3cc4c(cc3C2C)OCCCO4)c1 (stereo not drawn)	-4.13
COc1ccccc1C(=O)NCCC(=O)NCC1CCCO1 (stereo not drawn)	-11.2
Cc1ccccc1C(=O)NC1CCN(Cc2nnnn2CCc2ccccc2)CC1	-8.14
Cc1cccc(C(=O)OCN2C(=O)c3ccccc3C2=O)c1[N+](=O)[O-]	19.7
O=C(/C=C/c1ccco1)NCC1(c2ccccc2)CCCC1	-4.49
CCOc1ccc(S(=O)(=O)Nc2cccc(Cl)c2)cc1	6.4
CCOC(=O)C1CCN(C(=O)C2CCN(S(=O)(=O)c3c(C)noc3C)CC2)CC1	-12.6
CCOCCCNC(=O)Cn1ncc2c(=O)oc3ccccc3c21	-7.38
CN(C)CCCn1c(NC(=O)C2CCCCC2)nc2ccccc21	-27.3
CCOC(=O)[C@@H]1[C@H]2COc3ccc(Br)cc3[C@H]2N2C(=O)N(c3cccc(F)c3)C(=O)[C@]12C	-1.18
CN(NS(C)(=O)=O)c1c(C#N)c(C(F)(F)F)nn1C	11.4

Compound	hERG current change (%, negative = inhibition) at 10uM [%]
CC(CCc1ccccc1)NC(=O)COC(=O)c1ccc(S(C)(=O)=O)c([N+](=O)[O-])c1 (stereo not drawn)	-2.97
Br.O=C(CN1C2=NCCN2c2ccccc21)C12CC3CC(CC(C3)C1)C2	-72.7
O=S(=O)(NCCN1CCOCC1)c1ccc2c(c1)OCCO2	20.9
O=C(CSC1c2ccccc2C(=O)N1c1ccccc1)N1CCOCC1 (stereo not drawn)	0.586
COc1ccc(C(=O)Nc2c(F)c(F)c(F)c(F)c2F)c(OC)c1	8.63
Cc1ccc(CN2CCN(C(=O)CCc3ccccc3)CC2)cc1	-19.1
CC1CCN(S(=O)(=O)c2ccc3[nH]c(=O)cc(C(=O)O)c3c2)CC1	0.2
CC(=O)Nc1nc2c(ccc3ccccc32)s1	4.92
Cn1c(CNC(=O)CCNC(=O)c2ccccc2F)cc(=O)n(C)c1=O	17.3
COc1ccc(CC(=O)Nc2cc(C)ccn2)cc1	6.87
O=C(O)Cn1c(=O)c2c3c(sc2n(Cc2ccccc2F)c1=O)CCCC3	9.75
CSc1nnc(-c2sc3cc(C(F)(F)F)cnc3c2-c2cccnc2)n1C	-26.1
CCc1nnc(SCC(=O)Nc2ccc(C(C)=O)cc2)nc1CC	-8.24
COC(=O)CCC(=O)Nc1ccc(OC)cc1	4.9
O=C(Nc1cnccn1)c1cccs1	-13.7
COc1ccc(/C=C/C(=O)c2ccc(O)cc2)cc1COc1ccc(F)cc1	8.81
COc1ccc2cc(CCNC(=O)C3CC3)c(=O)[nH]c2c1	11
CCOC(=O)CNC(=O)CSc1nnc(Cn2c(=O)sc3ccccc32)n1-c1ccccc1C	-8.65
CCOC(=O)COc1ccc(CCNC(C)=O)cc1	15
Cc1ccc(COc2ccc(/C=N/NC(=O)c3ccc(CN4CCOCC4)cc3)cc2)cc1	9.35
COc1ccccc1NC(=O)N1CCN(c2cc(-c3ccccc3)nc3ncnn23)CC1	-68.3
CCC(C)(C)NC(=O)CN(CCc1cccc(C)c1)C(=O)c1csnn1	18.1
CCCCN(CCNP(=O)(OCC)OCC)CP(=O)(OCC)OCC	2.18

Compound	hERG current change (%, negative = inhibition) at 10uM [%]
O=C1CCC(C(=O)NC2(C(=O)NC3CCCCC3)CCCCC2)N1 (stereo not drawn)	11.5
S=c1[nH]nc(CCSCc2ccccc2)n1-c1ccccc1	18.7
COc1ccccc1C(=O)NC(C(=O)NCCc1nc2ccccc2[nH]1)=C(C)C	16.2
CCOC(CCc1c(C)nc(NC(C)=O)[nH]c1=O)OCC	19.5
COC(=O)C(CCSC)NC(=O)CNC(=O)C1CCCCC1 (stereo not drawn)	12.3
CN(C(=O)c1ccccc1C(=O)OCC(=O)c1ccc(Br)cc1)c1ccccc1	-16.2
Cc1cccc(CSc2ncccc2C(=O)O)c1	-3.28
CCOC(=O)c1nn(C23CC4CC(CC(C4)C2)C3)c2c1C(=O)N(c1ccc(C)cc1)C2=O	20.3
CC(NCc1ccc(Cl)cc1Cl)C(O)c1ccccc1.Cl (stereo not drawn)	-26.6
COc1ccc(-c2ccc(=O)n(CC(=O)NCC3COCCO3)n2)cc1 (stereo not drawn)	-3.26
CCCCOc1ccc(/C=N/NC(=S)Nc2cc(C)ccc2C)cc1	1.18
CCN(CC)N=Nc1ccc(C(=O)[O-])cc1.[K+]	-3.06
CC1CCCN(C(=O)CN2C(=O)c3ccccc3C2=O)C1 (stereo not drawn)	7.23
COc1ccc(Nc2ccc(Cl)nn2)cc1	3.11
COc1cc(/C=C(/C#N)c2nc3ccccc3[nH]2)ccc1OCC(=O)Nc1ccccc1C(C)C	-4.28
CCOC(=O)CC(NC(=O)Cn1nnc(-c2ccccc2)n1)c1ccc(OC)cc1 (stereo not drawn)	-28.7
O=C(O)c1cccc(NC(=S)NC(NC(=O)c2cccc([N+](=O)[O-])c2)C(Cl)(Cl)Cl)c1 (stereo not drawn)	12.4
O=C(NCC1CCCO1)c1cn(Cc2ccccc2)nc1-c1ccccc1 (stereo not drawn)	-0.0253
Nn1c(SCC(=O)Nc2ccc3c(c2)OCCO3)nnc1-c1ccncc1	-22.6
Cl.O[C@@H]1[C@@H](O)C=C2CCN3Cc4cc5c(cc4[C@H]1C23)OCO5 (stereo partly drawn)	20.2
O=C(CSc1nc2ccccc2c(=O)n1CCCN1CCOCC1)N1CCN(c2ccccc2)CC1	-70.6
O=C(Nc1ccc2nc(-c3ccc(Br)o3)[nH]c2c1)c1ccco1	-21.4
O=C(CCN1C(=O)/C(=C\c2ccccc2F)SC1=S)N1CCCCC1	9.02

Compound	hERG current change (%, negative = inhibition) at 10uM [%]
CCCC12CN3CC(C)(CN(C1)C3c1ccco1)C2=O (stereo not drawn)	-4.64
CCOc1ccc2c(c1)/C(=C(\C(Cl)=C(Cl)Cl)[N+](=O)[O-])N2	16.2
CCOc1ccc(-n2c(CCc3ccccc3)n[nH]c2=S)cc1	-2.91
CCOc1ccc(N(CC(=O)Nc2ccc(C)c(F)c2)C2=NC3CS(=O)(=O)CC3S2)cc1 (stereo not drawn)	2.97
C=CCN1c2ccccc2C(=O)CS1(=O)=O	2.87
COc1cc2cc(C(=O)O)[nH]c2c(OC)c1OC	13.3
CC(C)Cn1cnc2c1c(=O)n(C)c(=O)n2C	27.8
Fc1ccc(C(c2nnnn2Cc2ccccc2)N2CCSCC2)cc1 (stereo not drawn)	-2.85
CCc1ccc(NC(=O)COC(=O)CCCC2=NS(=O)(=O)c3ccccc3N2)cc1	-1.3
COc1ccccc1CCNC(=O)C1CCC(=O)N(C2CC2)C1 (stereo not drawn)	15.9
O=C(CCCOc1ccccc1)Nc1ccc(Cl)cn1	-3.18
O=C(c1ccccc1-c1ccccc1)N1CCOCC1	14.4
N#Cc1c(N)nc2c(c1-c1ccc(Br)s1)CCCC2	3.34
COc1ccc(C(=O)Nc2ccc(NC(C)=O)cc2)cc1S(=O)(=O)N1CCCC1	14.8
CCn1cc(C(=O)Nc2ccc(Cl)cc2Cl)cn1	-6.55
O=C(c1ncc[nH]1)c1cccs1	6.93
Cc1ccc(/C=C/C(=O)NCCCN2CCN(CCCNC(=O)/C=C/c3ccc(C)cc3)CC2)cc1	-0.473
COc1ccc(NC(=S)NC(=O)/C=C/c2ccc(F)cc2)cc1	13.6
CCn1c(SCC(=O)Nc2oc(-c3ccccc3)c(-c3ccccc3)c2C#N)nnc1-c1ccncc1	-68.2
O=C(Nc1ccccc1)C1=C[C@H](c2csc3ccccc23)C[C@H](OCCCCO)O1	-5.71
CCOc1ccc(S(=O)(=O)N/N=C(\C)c2ccc3c(c2)OCO3)cc1	21.9
